According to PMC4336329 (PLoS ONE, 2015):
Out of some 310,000 compounds screened, about 14,000 (4.5%) showed an effect of 50% or more. Effects have a minus sign here. The list shows a part of the results.

These compounds were tested against human ether-à-go-go-related gene (hERG) potassium channel (human, UniProt Q12809) (assay: primary screen, population patch clamp on CHO cells stably expressing hERG).
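Further: peak tail current of the secondary pulse compared with the same well before compound.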

Sequence of human ether-à-go-go-related gene (hERG) potassium channel (Q12809 whole entry, looked up): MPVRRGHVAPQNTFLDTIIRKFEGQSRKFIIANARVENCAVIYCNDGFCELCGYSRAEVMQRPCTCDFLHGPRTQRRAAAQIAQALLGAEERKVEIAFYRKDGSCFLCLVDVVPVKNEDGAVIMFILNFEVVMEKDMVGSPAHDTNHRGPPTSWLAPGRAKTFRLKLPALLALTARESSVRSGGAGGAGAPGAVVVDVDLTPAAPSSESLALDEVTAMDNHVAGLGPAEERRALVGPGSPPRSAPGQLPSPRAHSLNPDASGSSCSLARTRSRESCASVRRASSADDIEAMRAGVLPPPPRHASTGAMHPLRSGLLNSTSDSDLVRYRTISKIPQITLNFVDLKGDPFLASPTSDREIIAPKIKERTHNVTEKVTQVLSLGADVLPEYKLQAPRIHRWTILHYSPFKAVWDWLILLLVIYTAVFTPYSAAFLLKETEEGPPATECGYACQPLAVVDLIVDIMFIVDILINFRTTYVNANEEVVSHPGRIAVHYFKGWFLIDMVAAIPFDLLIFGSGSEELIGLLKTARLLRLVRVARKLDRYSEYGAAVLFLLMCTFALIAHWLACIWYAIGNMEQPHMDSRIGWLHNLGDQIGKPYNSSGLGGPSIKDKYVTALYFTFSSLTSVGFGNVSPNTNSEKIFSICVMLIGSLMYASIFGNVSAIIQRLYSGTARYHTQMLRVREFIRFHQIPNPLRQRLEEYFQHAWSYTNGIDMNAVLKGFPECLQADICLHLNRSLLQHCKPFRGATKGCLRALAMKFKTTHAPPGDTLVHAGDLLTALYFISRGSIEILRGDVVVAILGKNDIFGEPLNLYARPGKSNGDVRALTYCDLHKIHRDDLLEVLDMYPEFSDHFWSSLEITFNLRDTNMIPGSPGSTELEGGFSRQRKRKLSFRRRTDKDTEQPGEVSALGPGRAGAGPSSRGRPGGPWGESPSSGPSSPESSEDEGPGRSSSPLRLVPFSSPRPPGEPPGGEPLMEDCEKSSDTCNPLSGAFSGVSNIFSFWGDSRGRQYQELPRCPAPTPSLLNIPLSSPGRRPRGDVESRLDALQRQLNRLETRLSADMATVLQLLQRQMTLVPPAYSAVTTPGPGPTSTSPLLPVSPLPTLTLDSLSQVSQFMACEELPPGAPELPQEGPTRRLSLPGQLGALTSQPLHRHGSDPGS

Structure (SMILES)	hERG current change (%, negative = inhibition) at 10uM
CCOc1ccc(-n2nc(C(=O)NC3CCCCC3)c3ccccc3c2=O)cc1	28.7%
Cn1cccc1Cc1nnc(SCC(=O)Nc2ccc(F)cc2F)n1-c1ccc(F)cc1	-40.9%
Cc1ccsc1/C=N/NC(=O)CSCc1ccc(Cl)cc1	12.7%
CCN1C(=O)C2(SC(NC(C)=O)=NN2C(C)=O)c2cc(C)cc(C)c21 (centres unmarked)	6.22%
O=[N+]([O-])c1ccc(N2CCN(S(=O)(=O)c3ccc(Cl)cc3)CC2)cc1NCC1CCCO1 (centres unmarked)	-22.3%
COc1ccc(Cn2cccc(NC(=O)Nc3cccc(OC)c3)c2=O)cc1	2.33%
O=C(Nc1ccccc1N1CCN(C(=O)c2ccccc2)CC1)c1cc2ccccc2o1	9.86%
CC(C)c1ccc(C(C(=O)NC2CCCC2)N(C(=O)c2csnn2)C2CC2)cc1 (centres unmarked)	-9.14%
CCC(=O)c1ccc(OC(=O)/C=C/c2cc(OC)c(OC)c(OC)c2)cc1	15.7%
Cn1c(SCC(=O)CC(=O)Nc2ccccc2)nnc1-c1ccc(O)cc1	-6.85%
O=C(CCl)Nc1ccc(S(=O)(=O)Nc2nccs2)cc1	21.6%
COCCCNc1nc(=S)[nH]c2cc(OC)c(OC)cc12	-4.86%
CC1CCCC(NC(=O)COC(=O)CCC2CCCC2)C1C (centres unmarked)	10.3%
COc1ccc(/C=C/C(=O)c2ccccc2)c(OC)c1	-0.927%
O=C(CSc1nnc(-c2ccc(F)cc2)o1)NC1CCCCC1	4.29%
Cc1ccc(-n2nc3c(=O)n(C(C)C(=O)NCCC4=CCCCC4)nc(C)c3c2C)cc1 (centres unmarked)	-51.4%
CC(=O)N1N=C(c2ccc(C)c([N+](=O)[O-])c2)OC1(C)C	11.9%
O=c1c2c([nH]n1-c1ccccc1)CCSC2	25.9%
COc1ccccc1OCC(=O)Nc1c2c(nn1-c1ccccc1)CS(=O)(=O)C2	-8.22%
COc1ccc(C)cc1C1=Nc2ccccc2C1(C)C	-11.7%
Cc1nc2ccccc2n1CC(O)c1ccccc1 (centres unmarked)	12.5%
CCOCCn1c(C(C)C)nc2ccccc21	-1.12%

Structure (SMILES)	hERG current change (%, negative = inhibition) at 10uM
O=[N+]([O-])c1ccccc1-c1nc(-c2ccc(Br)o2)no1	-2.7%
O=C(Cn1nnc(-c2cccs2)n1)NCc1ccco1	26.6%
O=[N+]([O-])c1cccc(S(=O)(=O)[N-]c2nc3ccccc3nc2-n2cc[n+](Cc3ccccc3)c2)c1	-5.11%
CCN(CC)C(=O)c1sc2nc(-c3cccs3)cc(-c3ccc(Cl)cc3)c2c1N	14.3%
CC(=O)N1CCN(CC(=O)Nc2c(Cl)cc(Cl)cc2Cl)CC1	-54.2%
O=C(NNC(=O)c1cccs1)c1ccc(S(=O)(=O)N2CCCCC2)cc1	-17.4%
COC(CNc1ncnc2c1cnn2C)OC	9.17%
COc1ccc(N(CC(=O)NCc2ccccc2OC)S(=O)(=O)c2ccccc2)cc1	-14.2%
CC(=O)N1CCN(Cc2nc3cc(NC(=O)c4cccs4)ccc3n2C)CC1	13.8%
Cc1ccc(C)n1-c1ccc(N2CCOCC2)c([N+](=O)[O-])c1	2.53%
O=C(Nc1cc(-c2nc3ncccc3o2)ccc1Cl)c1ccc2c(c1)OCO2	10.2%
C#CCSc1nnc(-c2cccc3ccccc23)o1	-5.95%
COC(=O)COc1ccc(C)cc1-n1nc2ccccc2n1	-13.2%
COc1ccc(OC)c(NC(=O)CNC(=O)Cn2ccc3ccccc3c2=O)c1	8.72%
O=C(CN1C(=O)/C(=C\c2ccccc2Cl)Sc2ccccc21)NCCCN1CCOCC1	-5.29%
CCCNC1CCS(=O)(=O)C1.Cl (centres unmarked)	4.19%
CN(C)C(CNC(=O)c1cccc(C#N)c1)c1ccco1 (centres unmarked)	5.8%
C/C(CC(=O)Nc1ccc(Cl)cc1)=N\NC(=O)C(=O)NCCO	7.49%
CCC1(CC)NC(=O)N(CC(=O)OCC(=O)NC(=O)c2ccccc2OC)C1=O	2.84%
CC(C)c1ccccc1NC(=O)C1CC(=O)N(C2CCCC2)C1 (centres unmarked)	12.5%
Cc1ccc(CN2CCN(Cc3cn(C(C)C)c4ccccc34)CC2CCO)o1 (centres unmarked)	-21.8%
CC(=O)n1cc([C@H]2C=C(C(=O)Nc3ccccc3)O[C@@H](OCCCCO)C2)c2ccccc21	-25%
